# Among all 310,000 compounds or so, about 14,000 (4.5%) showed an effect of 50% or more. Effects have a minus sign here. Some of the results follow.
# Target: human ether-à-go-go-related gene (hERG) potassium channel (human, UniProt Q12809)
# Test: primary screen, population patch clamp on CHO cells stably expressing hERG
# 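Note: peak tail current of the secondary pulse compared with the same well before compound.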
# Sequence of human ether-à-go-go-related gene (hERG) potassium channel (Q12809 whole entry, looked up): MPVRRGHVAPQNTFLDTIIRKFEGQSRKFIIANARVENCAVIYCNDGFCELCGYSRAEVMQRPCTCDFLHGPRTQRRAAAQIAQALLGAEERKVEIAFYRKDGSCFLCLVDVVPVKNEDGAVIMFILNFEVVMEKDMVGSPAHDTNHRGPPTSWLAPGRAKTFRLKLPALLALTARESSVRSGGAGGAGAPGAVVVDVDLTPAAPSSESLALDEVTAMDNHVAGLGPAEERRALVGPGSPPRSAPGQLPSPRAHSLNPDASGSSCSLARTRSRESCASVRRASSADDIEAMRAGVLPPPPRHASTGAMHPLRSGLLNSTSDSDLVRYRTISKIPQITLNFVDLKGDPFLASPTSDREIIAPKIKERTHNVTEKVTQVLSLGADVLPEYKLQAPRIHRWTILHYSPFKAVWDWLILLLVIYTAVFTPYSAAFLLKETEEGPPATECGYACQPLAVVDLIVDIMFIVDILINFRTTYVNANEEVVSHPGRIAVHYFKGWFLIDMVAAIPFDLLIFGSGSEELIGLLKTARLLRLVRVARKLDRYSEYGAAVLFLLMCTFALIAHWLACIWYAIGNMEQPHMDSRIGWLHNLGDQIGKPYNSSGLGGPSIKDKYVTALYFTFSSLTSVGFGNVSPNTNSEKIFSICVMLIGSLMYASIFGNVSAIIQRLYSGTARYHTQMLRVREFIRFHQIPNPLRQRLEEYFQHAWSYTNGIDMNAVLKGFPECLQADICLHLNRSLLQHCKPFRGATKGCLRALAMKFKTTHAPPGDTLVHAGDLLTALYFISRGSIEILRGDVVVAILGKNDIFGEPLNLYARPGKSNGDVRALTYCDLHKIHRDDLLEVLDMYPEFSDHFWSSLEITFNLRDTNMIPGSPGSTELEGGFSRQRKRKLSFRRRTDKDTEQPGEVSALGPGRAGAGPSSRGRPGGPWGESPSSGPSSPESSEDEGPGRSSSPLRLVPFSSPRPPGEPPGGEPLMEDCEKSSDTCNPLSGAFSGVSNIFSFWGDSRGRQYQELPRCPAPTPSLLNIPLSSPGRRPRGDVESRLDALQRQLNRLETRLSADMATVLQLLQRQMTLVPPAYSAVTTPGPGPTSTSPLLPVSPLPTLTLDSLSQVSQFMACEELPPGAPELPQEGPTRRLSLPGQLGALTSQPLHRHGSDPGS
row,Structure (SMILES),"hERG current change (%, negative = inhibition) at 10uM [%]"
1,Cc1nc(N)c(Cc2ccccc2F)c(N)n1,4.49
2,COC(=O)C(C)Sc1nc2c(c(=O)[nH]c(=O)n2C)n1CCCc1ccccc1 (stereo not shown),-72.2
3,C[N+](C)(C)c1ccccc1.[I-],23.4
4,O=C(Nc1ccccc1Oc1ccsc1C(=O)O)c1ccccc1,17.2
5,Nc1c(C(=O)OCC(=O)Nc2ccc(Cl)cc2[N+](=O)[O-])[nH]c(=O)[nH]c1=O,-3.1
6,CC1=NNC(=O)C1CC(=O)N/N=C/c1ccc(C)o1 (stereo not shown),10.7
7,COc1ccc(CCN=C(N)NS(=O)(=O)c2ccc(C)c(C)c2)cc1OC,10.3
8,COc1ccc(NC(=O)CN(c2ccc(OC)c(Cl)c2)S(=O)(=O)c2ccccc2)cc1,-2.1
9,Cc1cc(C)cc(NC(=O)N2CCCC2C(=O)Nc2ccc(-n3cnnn3)c(C)c2)c1 (stereo not shown),-12.3
10,O=C(COc1ccc(S(=O)(=O)N2CCOCC2)cc1)Nc1ccc(Cl)c(C(F)(F)F)c1,-13.1
11,Cc1ccc(-c2nnn(CC(=O)N(c3ccccc3)C(C(=O)NCC3CCCO3)c3cccs3)n2)o1 (stereo not shown),24.6
12,Cc1ccc(OC(C)C)c(CN(CCO)CCO)c1.Cl,3.12
13,CCN(CCNC(=O)c1ccc(CSc2nc3ccncc3[nH]2)cc1)c1ccccc1,-8.51
14,COc1cccc(-n2nnnc2SCC(=O)Nc2cccc(NC(C)=O)c2)c1,4.09
15,O=C(NCc1ccccc1Cl)C1CCCN(c2ncnc3c2nc2n3CCCCC2)C1 (stereo not shown),-60.8
16,COc1ccc(C(=O)N/C(=C\c2cc(OC)c(OC)cc2[N+](=O)[O-])C(=O)NCC(=O)O)cc1,61
17,O=C(NC1CCCCCC1)c1ccc(OCC2CCCO2)cc1 (stereo not shown),-12
18,CC1(CCc2ccccc2)NC(=O)N(CC(=O)Nc2ccc(S(N)(=O)=O)cc2)C1=O (stereo not shown),17
19,CC(=O)c1cc(-c2ccccc2)n(CC(=O)N2CCN(C3CCCC3)CC2)c1C,-6.62
20,CNS(=O)(=O)c1cccc(C(=O)OCC(=O)N(CCC#N)c2ccccc2)c1,3.5
21,Cc1ccc(-c2cc(=O)c3ccccc3[nH]2)cc1,13.6
22,COc1ccc(NC(=O)Cn2nnc(C(N)=O)c2N)c(OC)c1,3.77

row,Structure (SMILES),"hERG current change (%, negative = inhibition) at 10uM [%]"
1,Cc1c(NC(=O)Nc2ccccc2Cl)c(=O)n(-c2ccccc2)n1C,7.68
2,CCOC(=O)C(=CNc1cc(Cl)c(-c2ccco2)c(Cl)c1)C(=O)OCC,16.4
3,N#CCSc1nc2ccccc2c(=O)n1CCC(=O)NCCc1ccccc1,13.2
4,COc1ccc(NS(=O)(=O)c2ccc(NC(=S)NC(=O)c3ccc(F)cc3)cc2)nn1,-3.26
5,COc1ccc(/C=N/n2nnnc2N)cc1OC,14.4
6,C/C(=N\NC(N)=O)c1cccc(Cl)c1,7.02
7,N#Cc1c2n(c(=O)[nH]c1=O)CCCCC2,5.4
8,O=C(NCCN1CCCCC1)Nc1ccc(Br)cc1,-52.4
9,CCOC(=O)C1CCCN(S(=O)(=O)CCNC(=O)c2ccccc2)C1 (stereo not shown),-4.11
10,CCCN(C(=O)/C=C/c1ccco1)c1c(N)n(Cc2ccccc2)c(=O)[nH]c1=O,38.9
11,O=C1C(=O)N(CCCN2CCOCC2)C(c2ccc([N+](=O)[O-])cc2)/C1=C(\O)c1ccc2c(c1)OCCO2 (stereo not shown),7.47
12,O=C(CCNC(=O)c1ccc(Br)cc1)NNC(=O)C1COc2ccccc2O1 (stereo not shown),-7.71
13,c1ccc(N2CCN(c3nc(-c4cccs4)nc4ccccc34)CC2)cc1,-8.84
14,COC(=O)c1ccc(NC(=O)CN2C(=O)c3ccccc3S2(=O)=O)cc1,16.8
15,Cc1csc(NC(=O)Cc2nn(C)c(=O)c3ccccc23)n1,1.84
16,CC(C)S(=O)(=O)c1csc(C(=O)NNC(=O)Nc2ccccc2)c1Cl,8.75
17,CC1CC(C)CN(S(=O)(=O)c2ccc(NN)nc2)C1 (stereo not shown),3.46
18,NC(=O)CC(NC(=O)Cc1ccc(Br)cc1)c1ccc(NC2CCC2)c([N+](=O)[O-])c1 (stereo not shown),-19.8
19,COc1ccccc1/C=C/C(=O)OCC(=O)Nc1c(F)cccc1F,35.9
20,CC(=O)Nc1cccc(NC(=O)CSc2nnc3ccc(-c4ccccn4)nn23)c1,20.9
21,CN(CC(=O)O/N=C(\N)c1cccc([N+](=O)[O-])c1)S(=O)(=O)c1ccccc1,-24.4
22,CCCNc1c(NS(=O)(=O)c2c(F)c(F)c(F)c(F)c2F)c(=O)oc2ccccc12,-7.27

row,Structure (SMILES),"hERG current change (%, negative = inhibition) at 10uM [%]"
1,Cc1cc(C)c(NC(=O)CS(=O)CC(=O)NCCCc2ccccc2)c(C)c1 (stereo not shown),-2.19
2,COc1ccc([C@@H]2[C@@H]3C(=O)N(C(C)(C)C)C(=O)[C@@H]3[C@]3(Cc4ccc(Cl)cc4)C(=O)N(c4ccc(Br)cc4)C(=O)N23)cc1,2.7
3,Cc1cc(C)cc(OCC(=O)OCC(=O)Nc2ccc(Cl)cn2)c1,3.54
4,COc1ccnc(CSC(N)=Nc2ccc(F)cc2)c1.Cl,-26.2
5,CC(C)(C)c1ccc(NC(=O)c2ccsc2)cc1,2.17
6,Cc1ccccc1C(=O)Nc1ccc(Br)cn1,12.4
7,COc1ccc(C(=O)Nc2nnc(S(=O)(=O)N(C)Cc3ccc(F)cc3)s2)cc1OC,-12
8,O=C(CCN1C(=O)C2C3C=CC(C3)C2C1=O)Nc1ccc2c(c1)OCO2 (stereo not shown),-5.95
9,CCOC(=O)N1CCN(CC(O)COc2cc(C)ccc2C(C)C)CC1.Cl (stereo not shown),-26.8
10,O=C(c1cc2ccccc2cc1O)N1CCN(c2cccc(Cl)c2)CC1,16.2
11,COc1ccc(OCC(=O)N2CCN(C/C=C/c3ccccc3)CC2)cc1,-58.8
12,O=C1CC(c2ccc(F)cc2)Sc2nc(-c3ccccc3)c(-c3ccccc3)n21 (stereo not shown),-5.09
13,CC1CNCCN1S(=O)(=O)c1cccc2cnccc12 (stereo not shown),-4.97
14,CCn1ncc(NC(=S)NCCc2ccccc2)c1C(N)=O,-14.6
15,Cc1nn(C)cc1CN1CCC(n2nccc2NC(=O)CCCc2ccccc2)CC1,-3.27
16,COc1cccc(C(=O)N2CCN(C(=O)c3cccs3)CC2)c1OC,2.72
17,CCOC(=O)CN1CCC(c2ccccc2)CC1,-2.19
18,CC(C)NCC(O)c1ccc(NS(C)(=O)=O)cc1.Cl (stereo not shown),24.8
19,COc1ccccc1NS(=O)(=O)c1cccc(C(=O)N/N=C/c2ccc(C)o2)c1,4.6
20,CCS(=O)(=O)N1Cc2ccccc2CC1C(=O)NCc1cccc(OC)c1 (stereo not shown),-10.1
21,Oc1ccc2ccccc2c1/C=N/Nc1ccccc1,13.4
22,C(=C\c1ccccc1)/CSc1nnc(-c2ccccn2)n1Cc1ccco1,-50.9

row,Structure (SMILES),"hERG current change (%, negative = inhibition) at 10uM [%]"
1,Cc1ccc(N=C2NC(=O)C(CC(=O)O)S2)cc1 (stereo not shown),5.7
2,COc1ccc(C(=O)NNS(=O)(=O)c2ccccc2)cc1,2.22
3,O=C(NC1CCCc2ccccc21)C12CC3CC(CC(O)(C3)C1)C2 (stereo not shown),25.6
4,CCOC(=O)c1cc(CC)sc1N,15.9
5,O=Cc1ccc2ccc3cccnc3c2n1,-24.4
6,Cc1ccc(S(=O)(=O)N2CCN(C(=O)COC(=O)CCOc3ccccc3)CC2)c(C)c1,1.16
7,CC(NC(=O)C(=O)NN=C1CCCCCCC1)c1ccccc1 (stereo not shown),2.29
8,COC(=O)C1=C(c2ccc(S(C)(=O)=O)cc2)C[C@@H]2CC[C@H]1N2C(=O)NC1CCCCC1,-26.9
9,O=C(O)c1cn(-c2ccc(N3CCCC3)c(F)c2)c2c(F)c(F)c(F)cc2c1=O,-19.2
10,Cc1ccc(NC(=O)CS(=O)CC(=O)N(CC(=O)NC2CCCC2)c2cc(C)ccc2C)cc1 (stereo not shown),-31.6
11,COc1ccc(C(=O)Nc2ccc(SC(F)F)cc2)cc1,-2.14
12,CCN(C(=O)COc1ncnc2ccc(Br)cc12)C1CCS(=O)(=O)C1 (stereo not shown),1.58
13,Cc1oc(-c2ccccc2Cl)nc1CS(=O)(=O)CC(=O)NCCc1ccccc1,-18
14,CCC(COC(=O)NC)NC(=O)Oc1ccccc1 (stereo not shown),-4.44
15,O=C(NCCCn1cccn1)C1CCC(=O)N(Cc2cccc(C(F)(F)F)c2)C1 (stereo not shown),8.62
16,COc1ccccc1C(=O)NC(CCSC)C(=O)N1CCC(Cc2ccccc2)CC1 (stereo not shown),-23.1
17,Cc1ccc(CNC(=O)c2ccccc2N)cc1,5.16
18,CCCn1c(N/N=C\C=C\c2ccccc2)nc2c1c(=O)[nH]c(=O)n2C,-29
19,CSc1cccc(NC(=O)C(C)Sc2ccc(C)cc2)c1 (stereo not shown),-5.32
20,NS(=O)(=O)c1ccc(NC(=O)COC(=O)c2cc3ccccc3oc2=O)cc1,-5.94
21,Cc1ccc(C(=O)NCCCN2CCOCC2)cc1N1CCCC1=O,8.7
22,O=C(C1CCN(S(=O)(=O)c2cccc3cccnc23)CC1)N1CCN(C2CCCCC2)CC1,-0.647
